Data from PubChem BioAssay AID493208 (National Center for Advancing Translational Sciences (NCATS), 2011).
In all, about 44,000 compounds went through this assay and about 340 (0.77%) were called active. About 5% were inconclusive and are not listed. Calls come from the whole dose curve; as a rule, active = well fitted inhibition curve with a large enough effect; inconclusive = small, poorly fitted or top-dose-only effect; inactive = flat fitted curve, though single readings scatter. The list shows a part of the results.

test: Acumen qHTS Assay for Inhibitors of the mTORC1 Signaling Pathway in MEF (Tsc2-/-, p53-/-) Cells: Sytravon; conditions: phospho-rpS6 immunofluorescence/PI, 24 h; series mostly up to 38.3 µM; activity change, negative = inhibition: at the top concentration;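 note: plate controls were DMSO for no effect and rapamycin for full effect; nearly all actives have a fitted effect of over 50% in size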
Summary of the method: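 Plate MEFs (Tsc2-/-, p53-/-, empty vector) in DMEM/10% FBS; after 24 h add compound, incubate 24 h at 37 degree Celsius; fix in PFA/TX-100, block, stain phospho-rpS6 and 10 uM PI; scan at 488 nm; report % positive cells.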

Activity change, negative = inhibition, inactive:
CC(=O)Nc1ccccc1-c1nc2ccccc2n(CC(=O)c2ccc(C)c(C)c2)c1=O -28.3%, CCC(CC)C(=O)Nc1ccc(OCc2cc(=O)n3ccsc3n2)cc1 -5.07%, Cc1ccc2ncc(C(=O)NCc3ccccc3Cl)c(=O)n2c1 -0.978%, Cc1ccc(CCNC(=O)C2CCN(c3nnc(C)c4c(C)n(-c5ccccc5)nc34)CC2)cc1 -0.441%, COc1ccc(C)cc1NCc1nnc2n1CCCCC2 -12.2%, COc1ccc(NC(=O)CSc2nc3ncccc3[nH]2)c(OC)c1 -9.63%, Cn1c(=O)cc(OCC(=O)N2CCN(c3ccccc3)CC2)c2ccccc21 -2.13%, CCc1ccccc1NC(=O)c1ccc(F)c(S(=O)(=O)NC2CCCCCC2)c1 7.7%, Cc1ccc(NC(=O)CSCc2cnn(-c3ccccc3)c2-n2cccc2)c(C)c1 -5.56%, CCOc1cccc2sc(N(Cc3cccnc3)C(=O)C3CCCCC3)nc12 -6.25%, Cc1cccc(NC(=O)c2ccc(C(=O)Nc3cccc(C)c3C)cc2)c1C -0.454%, CN1CCN(C(c2ccccc2Cl)c2sc3nc(-c4ccco4)nn3c2O)CC1 (stereo not drawn) -7.18%, CCC(=O)N1CCc2cc(Br)cc(S(=O)(=O)N3CCN(c4ccc(C(C)=O)cc4)CC3)c21 -0.89%, CCCCN(C)CCNC(=O)c1nn(-c2ccc(OC)c(Cl)c2)c(=O)c2c1c1ccccc1n2C -2.67%, Cc1nn(-c2ccccc2)c2sc(C(=O)Nc3ccc(Cl)cc3Cl)cc12 8.53%, COc1ccc(CNC(=O)Cn2c(=O)c3cccn3c3cccnc32)cc1 -7.62%, Cc1cccn2c(=O)c(C(=O)N3CCN(c4ccccc4F)CC3)cnc12 -6.51%, COc1ccc(C(=O)Nc2nnc(SCc3cc(=O)c4cc(C)ccc4[nH]3)s2)cc1OC -7.96%, COC(=O)C1=C(CS(=O)(=O)c2ccc(C)cc2C)NC(=O)NC1c1ccc(C)cc1 (stereo not drawn) -11.2%, COc1ccc2c(C)c(CCC(=O)NCCc3ccccc3)c(=O)oc2c1 -0.358%, CCN(CC)c1ccc2cc(-c3nnc(Nc4ccc(C)cc4)s3)c(=O)oc2c1 -4.8%, Cc1cc(C)c(S(=O)(=O)NCc2ccc3c(c2)CCN3C(=O)c2ccccc2)c(C)c1 0%, COC(=O)c1ccc(NC(=O)c2c(NCc3cccc(F)c3)sc3c2CCCC3)cc1 -4.21%, Cc1cc2c(cc1S(=O)(=O)N(CCN(C)C)Cc1ccccc1)OCC(=O)N2 5.3%, CCC(Oc1ccccc1F)C(=O)Nc1cc(-c2ccccc2)no1 (stereo not drawn) -2.46%, COc1ccccc1C(c1c(O)cc(C)n(Cc2ccco2)c1=O)N1CCCCC1 (stereo not drawn) 4.01%, Cc1cccc(N2CCN(S(=O)(=O)c3cc(C(=O)Nc4ccc(Oc5ccccc5)cc4)ccc3F)CC2C)c1 (stereo not drawn) -12.5%, CCOc1ccccc1NC(=O)CSc1c2c(nc3ccc(Cl)cc13)CCCC2 2.46%, COc1ccc(S(=O)(=O)N(CC(=O)NCCSc2ccc(C)cc2)c2ccc(C)cc2)cc1 3.12%, CCOC(=O)C1CCCN(S(=O)(=O)c2cc(-c3onc(C)c3C)ccc2OC)C1 (stereo not drawn) -4.61%, CCc1c(-c2ccccc2)nc2ccccc2c1C(=O)NC(C)c1ccccc1 (stereo not drawn) -3%, CC1CCc2onc(C(=O)Nc3ccc(Cl)cc3)c2C1 (stereo not drawn) 2.55%, COc1ccc(-c2noc(CNC(=O)c3cc(OC)c(OC)c(OC)c3)n2)cc1 -4.22%, Cc1[nH]c2ccc(C(=O)NCCCN3CCCCC3)cc2c1C -5.11%, COc1cccc(-c2nc(-c3ccc(Br)o3)no2)c1 7.03%, CCCN(c1ccccc1F)S(=O)(=O)c1ccc2c(c1)C(C)(C)C(=O)N2C 0.867%, CC(=O)N1CCC(N(Cc2ccc(C)o2)C(=O)Nc2ccccc2F)CC1 -1.63%, Cc1nc2c(c(C)c1CCC(=O)NCc1ccc(F)cc1)c(=O)n(C)c(=O)n2C 2.96%, CCOc1ccccc1NC(=O)Cn1nnc(C(=O)NCc2cccs2)c1N -19.3%, CCOc1c(Br)cc(C2C=C(C(=O)O)Nc3ncnn32)cc1OC (stereo not drawn) 2.27%, COc1ccc(NCc2cc3cc4c(cc3n(CC(=O)Nc3ccc(C)cc3C)c2=O)OCO4)cc1 0%, CC(=O)N1c2ccccc2C(=O)C1N1CCN(c2ccc(Cl)cc2)CC1 (stereo not drawn) -6.19%, O=C(NCc1ccccc1)c1cc(Sc2cccc(Cl)c2)nc2ccccc12 -4.85%, CCOC(=O)c1cc(OC(=O)c2ccccc2F)n(-c2ccccc2)n1 -7.18%, Cc1ccc(-c2nc(S(=O)(=O)c3ccc(F)cc3)c(N3CCN(c4ccccc4)CC3)o2)cc1 0%, CC(C)C[C@H](N)c1nnc(SCc2ccc(Cl)cc2Cl)o1 -1.47%, Cc1ccccc1Nc1nn2c(=O)c3ccc(C(=O)NCC(C)c4ccccc4)cc3nc2s1 (stereo not drawn) -9.99%, CC1=C(c2ccc(C(C)C)cc2)S(=O)(=O)N=C1N1CCN(c2ccccc2F)CC1 0%, CCOC(=O)c1ccc(NC(=O)c2c(NCc3sccc3C)sc3c2CCC(C)C3)cc1 (stereo not drawn) -2.91%, NC(=O)c1nc(Nc2ccccc2)sc1NC(=O)c1c(F)cccc1F -19.5%, CCOCCCNC(=O)c1c[nH]c2ccc(S(=O)(=O)N(C)c3ccc(Cl)cc3F)cc2c1=O 6.57%, CN1CCN(C(CNC(=O)C(=O)Nc2ccc(Cl)cc2)c2cccnc2)CC1 (stereo not drawn) -20.6%, Cc1ccc(C)c(N2CCN(C(=O)CCc3nnc4n(C)c(=O)c5ccccc5n34)CC2)c1 -7.37%, CCOC(=O)c1cccnc1SCC(=O)N(CC)c1cccc(C)c1 13.6%, CC(C)(C)c1ccc(OCC(=O)Nc2ccc(C(=O)OC3CCCCC3)cc2)cc1 -5.28%, COc1ccc(F)cc1S(=O)(=O)NCC(c1ccco1)S(=O)(=O)c1cccs1 (stereo not drawn) -11.8%, CC(C)Cn1nc(NC(=O)c2cccc(Cl)c2)c2cc3ccccc3nc21 2.25%, CCc1ccccc1NC(=O)c1oc(=O)c2ccccc2c1-c1ccccc1 -2.56%, CCCCOc1cccc(C(=O)Nc2sc3c(c2C(=O)OCC)CCCC3)c1 1.99%, Cc1ccc2nc3c(cc(C#N)c(=O)n3-c3nnc(SCc4ccc(F)cc4)s3)c(=O)n2c1 0.761%, COc1cccc(NC(=O)CSc2nc(=O)n(Cc3cccnc3)c3c2CCC3)c1 -2.84%, CCOc1ccccc1NC(=O)Cn1c(=O)n(CC(=O)NCc2ccccc2Cl)c(=O)c2sccc21 -3.49%, COc1ccc(OCC(=O)Nc2ccc(-c3nc4cc(Cl)ccc4o3)cc2)cc1 7.17%, COc1ccc(CCNC(=O)CCCCn2c(=O)c3ccccc3n(Cc3cc(C)ccc3C)c2=O)cc1OC -14.6%, CCCN(CCC)C(=O)Cn1c(=O)n(-c2ccc(OC)cc2OC)c(=O)c2c3c(sc21)CCC3 1.39%, CCOc1ccc(CNC(=O)c2ccc3c(c2)c(C)c(C)n3C)cc1 5.07%, CCCn1c2ccccc2c2cnn(CC(=O)NCC3CCN(Cc4ccc(C)cc4)CC3)c(=O)c21 -3.8%, CCOc1ccc(-n2c(SCc3ccccc3)nc3c([nH]c4ccccc43)c2=O)cc1 -5.13%, Cc1ccc(NC(=O)Nc2nnc(SCC(=O)N3CCCCC3)s2)cc1 0.848%, COc1ccc(Nc2cc(C)c3cc(NC(=O)c4ccccc4Cl)ccc3n2)cc1 -7.55%, COc1cccc(N2CC(NC(=O)c3cc4ccccc4o3)CC2=O)c1 (stereo not drawn) 1.54%, Fc1ccc(-c2noc3ncnc(NCCc4ccc(Cl)cc4)c23)cc1 -2.8%, CC(C)c1ccc2c(c1)NC(c1ccc(F)cc1)=NC(c1cccs1)=N2 -3.89%, Cc1nc2ncnn2c(C)c1CCC(=O)N1CCN(c2ccc(F)cc2)CC1 0.835%, COc1cccc(CNC(=O)N2CCc3c(sc4c3CCCC4)C2c2ccc(F)cc2)c1 (stereo not drawn) 8.81%, Cc1cccc(C(=O)NCCc2nc3ccccc3n2Cc2ccccc2Cl)c1 -3.36%, Cc1cc(Nc2cccc(C(F)(F)F)c2)nc2ccc(NC(=O)Cc3ccc(Cl)cc3)cc12 -22.9%, CCOC(=O)CCc1c(C)nc2c(-c3ccccc3)c(C)[nH]n2c1=O 2.43%, CCOc1ccccc1CNC(=O)CSc1n[nH]c(-c2ccccc2)n1 -12%, O=C(CSc1nnc(-c2ccncc2)n1-c1ccccc1)Nc1ccc(F)cc1 -8.78%, CC(C)c1noc(-c2ccccc2OCC(=O)Nc2ccc([N+](=O)[O-])cc2)n1 -0.384%, Cc1cc(=O)n(Cc2cccc(Cl)c2)c2c1c(C)nn2C -14.4%, COc1ccc(OC)c(C2C(C(=O)Nc3ccc(C)cc3C)=C(C)Nc3c(C(=O)Nc4ccc(F)cc4)cnn32)c1 (stereo not drawn) 8.87%, CCn1c2c(c(=O)n3ncc(C(=O)N4CCN(c5ccccc5)CC4)c13)CN(Cc1ccc(OC)cc1)CC2 -0.138%, COc1ccc(Cl)cc1NC(=O)CSc1nc(=O)n(Cc2ccco2)c2c1CCC2 -9.73%, CCOC(=O)c1ccccc1NC(=O)c1cn(CC(C)C)c(=O)c2cc(OC)c(OC)cc12 -16.4%, COc1ccc(OC)c(-c2noc(CSc3nnc(-c4ccccc4)n3-c3ccccc3)n2)c1 1.7%, Cc1ccc(-n2ncc3c(Nc4ccc(Oc5ccccc5)cc4)ncnc32)c(C)c1 1.33%, COc1ccc(N2CCN(S(=O)(=O)c3ccc(C4CCCCC4)cc3)CC2)cc1 -0.846%, Cc1ccc(OCC(=O)Nc2nnc(S(=O)(=O)N3CCc4ccccc43)s2)cc1 7.26%, COc1ccc(Cn2c(C(=O)O)c(CNCc3ccc(OC)cc3OC)c3ccc(C)cc32)cc1 -13.5%, COc1ccc(NC(=O)CSCc2cc(=O)c3cc(C)ccc3[nH]2)cc1 3.29%, Fc1ccc(CNCCCSc2nnnn2-c2ccccc2)cc1 -2.06%, COc1ccc(CCCc2nnc(SCC(=O)Nc3cc(F)ccc3C)o2)cc1 -5.8%, CCOc1ccc(CNC(=O)c2ccc3c(Cl)c4c(nc3c2)CCCC4)cc1 -1.53%, CN(C(=O)CSc1nc2ccc(NC(=O)c3cccc(F)c3)cc2s1)c1ccccc1 -11.8%, COc1cc(Cl)c(C)cc1NC(=O)CC1Oc2ccccc2NC1=O (stereo not drawn) -0.548%, COc1ccc(C(=O)Nc2ccc(-c3nc4ncccc4o3)cc2C)cc1Br -2.43%
